Data published in PMC6212790.
The list shows a part of the results. At the low end of the ranking the order means little.

target: T1, GST-Rok (full length) (UniProt O34857); assay: protein binding microarray; settings: Rok is a gene silencer of Bacillus subtilis; high values mean tight binding; most listed sequences are background and not binding sites; double strand, one strand shown;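 note: rank score from −0.5 (least bound) to 0.5 (best bound)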
T1 sequence: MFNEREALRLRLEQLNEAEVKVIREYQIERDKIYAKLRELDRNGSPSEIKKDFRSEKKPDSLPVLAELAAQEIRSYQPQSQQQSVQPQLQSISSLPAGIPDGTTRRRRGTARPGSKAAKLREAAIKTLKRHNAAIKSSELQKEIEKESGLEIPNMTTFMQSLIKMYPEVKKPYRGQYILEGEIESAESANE

Row | Sequence | binding signal [E-score]
1 | AAAGTTGC | 0.0569
2 | ACGTAATC | 0.0324
3 | ATCGGTCC | -0.201
4 | AGATCAGA | 0.156
5 | CTAGAATA | 0.238
6 | AACCTCTT | -0.189
7 | ACCATGGT | 0.0331
8 | CGCGCGTA | 0.073
9 | ACCTAGAA | 0.109
10 | ATCGCTCA | -0.135
11 | TGATCCCA | -0.0393
12 | CTTCTGAA | -0.211
13 | CCTACGAG | -0.119
14 | AATTCGAG | 0.0847
15 | ACCAGAGC | -0.203
16 | AACTAACG | 0.294
17 | AACATATA | 0.257
18 | AACCATGC | -0.0502
19 | CGATTGTA | 0.183
20 | CTAGGTGC | 0.0764
21 | CTGCATTC | -0.202
22 | ACCAGCCG | 0.0494

Row | Sequence | binding signal [E-score]
23 | ACATGCCC | 0.0712
24 | CCCGCCCG | -0.355
25 | AGCGGCCT | -0.231
26 | GATTTAAC | 0.168
27 | CGTCTGTC | -0.104
28 | CACGGACG | -0.107
29 | GCCAGCCA | -0.303
30 | CGCGAGCG | -0.19
31 | ATTAACAG | 0.0334
32 | CAGCGGGA | -0.23
33 | CTAACGCC | -0.11
34 | TCTGGGAA | 0.0298
35 | GATGCCCA | -0.197
36 | CTTTATCA | 0.0437
37 | GCCAACGC | -0.262
38 | GTGTGCTA | 0.145
39 | AGGCAACA | -0.0653
40 | GAGCGCGA | -0.158
41 | AAGCTCAA | -0.0295
42 | GAGTTAAC | 0.0753
43 | GAGAACGA | 0.0446
44 | AAATTCAA | 0.145

Row | Sequence | binding signal [E-score]
45 | CGTATCTA | 0.203
46 | CCAAAAGG | -0.25
47 | ACGGAAAT | 0.0416
48 | TAGCTAAA | 0.214
49 | TTAGACAA | -0.00469
50 | CGAACTTA | 0.108
51 | AAAACGAG | -0.0543
52 | CGTTGAGA | -0.0833
53 | CTATGAAA | 0.0511
54 | AATATTCG | 0.255
55 | CCTGTCCG | -0.244
56 | GTGGCCCA | -0.282
57 | CATGGACG | -0.172
58 | TAATGCGA | 0.268
59 | AGCGATAT | 0.211
60 | GGGCCGAC | -0.226
61 | TAATCTGA | 0.0488
62 | CATCAGGG | -0.0393
63 | GAAAACTA | 0.346
64 | AAAAATTA | 0.222
65 | CACTGGGA | -0.274
66 | AGTTTTGG | 0.0757

Row | Sequence | binding signal [E-score]
67 | GCCTTCTA | -0.198
68 | AAACAGGC | 0.00493
69 | AATAGATG | 0.261
70 | CCTCAAGA | 0.0118
71 | GGACAGTA | 0.0154
72 | GCCTGTTA | -0.183
73 | ACTACCAA | 0.305
74 | ACAAATCT | 0.191
75 | AATCCGTG | -0.0286
76 | TCTGGTCA | -0.0908
77 | ATTCACTG | 0.0232
78 | CTTGGGCA | -0.266
79 | ATAAGCAC | 0.0885
80 | ACTACACA | 0.201
81 | CTTGGCAC | -0.239
82 | CCCTGCAA | -0.136
83 | CATACCAG | -0.0105
84 | CCCAGAGG | -0.202
85 | CCCCACTA | -0.215
86 | AAGGCCTA | -0.148
